About 14,000 (4.5%) of roughly 310,000 compounds showed an effect of 50% or more. Effects have a minus sign here. The list shows a part of the results.
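Note: peak tail current of the secondary pulse compared with the same well before compound.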

The target of this assay is human ether-à-go-go-related gene (hERG) potassium channel (human, UniProt Q12809). Nature of the assay: primary screen, population patch clamp on CHO cells stably expressing hERG.
human ether-à-go-go-related gene (hERG) potassium channel, sequence (Q12809 whole entry, looked up): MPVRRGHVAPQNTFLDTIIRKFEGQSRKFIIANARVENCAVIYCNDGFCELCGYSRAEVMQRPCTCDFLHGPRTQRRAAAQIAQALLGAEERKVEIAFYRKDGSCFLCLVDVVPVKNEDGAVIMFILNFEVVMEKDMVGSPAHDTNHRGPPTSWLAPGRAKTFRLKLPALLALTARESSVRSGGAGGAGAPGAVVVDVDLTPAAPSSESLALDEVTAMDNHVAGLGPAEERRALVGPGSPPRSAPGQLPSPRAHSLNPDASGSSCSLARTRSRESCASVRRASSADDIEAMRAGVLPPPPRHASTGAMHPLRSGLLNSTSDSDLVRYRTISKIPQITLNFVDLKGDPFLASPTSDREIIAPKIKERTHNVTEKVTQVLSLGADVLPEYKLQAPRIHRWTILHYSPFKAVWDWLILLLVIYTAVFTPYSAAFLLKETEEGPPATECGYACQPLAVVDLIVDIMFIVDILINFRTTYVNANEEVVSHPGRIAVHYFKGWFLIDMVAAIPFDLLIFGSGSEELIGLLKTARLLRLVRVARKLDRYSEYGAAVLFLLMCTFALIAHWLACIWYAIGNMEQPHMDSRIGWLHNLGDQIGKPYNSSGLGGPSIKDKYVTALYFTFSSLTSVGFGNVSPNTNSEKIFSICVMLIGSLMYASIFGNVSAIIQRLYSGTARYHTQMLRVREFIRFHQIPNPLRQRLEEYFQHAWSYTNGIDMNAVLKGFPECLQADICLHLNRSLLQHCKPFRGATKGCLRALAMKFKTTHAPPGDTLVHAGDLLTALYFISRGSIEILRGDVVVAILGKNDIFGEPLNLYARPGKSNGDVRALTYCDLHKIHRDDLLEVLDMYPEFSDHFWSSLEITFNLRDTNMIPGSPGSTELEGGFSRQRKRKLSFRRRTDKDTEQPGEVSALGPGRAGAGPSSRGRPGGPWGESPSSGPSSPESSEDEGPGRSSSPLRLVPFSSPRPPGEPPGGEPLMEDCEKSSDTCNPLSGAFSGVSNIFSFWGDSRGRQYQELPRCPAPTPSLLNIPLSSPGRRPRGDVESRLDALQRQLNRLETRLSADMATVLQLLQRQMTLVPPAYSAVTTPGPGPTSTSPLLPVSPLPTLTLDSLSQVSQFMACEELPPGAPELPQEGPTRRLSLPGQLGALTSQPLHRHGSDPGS
For `O=C(CSCc1ccc(F)cc1)Nc1ccccc1C(=O)N1CCOCC1`, the “hERG current change (%, negative = inhibition) at 10uM” value is -3.51%.
With `O=C(Nc1ccc2c(c1)nc1n2CCSC1)c1ccccc1`, the “hERG current change (%, negative = inhibition) at 10uM” value is given as -14.9%.
On to `Cc1ccc(-c2csc(NC(=O)c3cnccn3)n2)cc1C`, for which the “hERG current change (%, negative = inhibition) at 10uM” value is 9.47%.
In the case of `CCOc1ccc(C2C3=C(Nc4nc(N)[nH]c(=O)c42)c2ccccc2C3=O)cc1` (stereo not shown) it was -12.2%; in that of `CCCNC(=S)Nc1ccc(Cl)cc1C`, 1.16%; in that of `Cc1cc(CN(C)C(=O)CC2C(=O)NCCN2Cc2c(F)cccc2Cl)n[nH]1` (stereo not shown), 2.87%.
In the case of `CC(NC(=O)C1CCN(S(=O)(=O)c2cccs2)CC1)c1cccc(Cl)c1` (stereo not shown) it was -46%; in that of `C[n+]1ccn(CC(=O)c2ccc(Br)cc2)c1.[Br-]`, -5.34%.
`CCC(CC)C1C(C#N)=C(N)SC(N)=C1C#N`: the “hERG current change (%, negative = inhibition) at 10uM” value is reported as -4.08%.
Regarding `COc1cc(CNCc2cccnc2)ccc1OCC(=O)NC1CCCCC1.Cl`, the “hERG current change (%, negative = inhibition) at 10uM” value was found to be 17.7%.
In the case of `COc1ccc(/C=N/n2c(N)nc3ccccc32)cc1OC` it was -1.46%; in that of `CCc1ccc(C(=O)COC(=O)CNC(=O)c2ccco2)cc1`, -18.2%.
In the case of `COc1cccc(C(=O)Oc2cc(-c3ccccc3)no2)c1` it was 9.95%.
For the compound `O=C(Cc1ccc(Cl)cc1)Nc1cccc2ncccc12`, the “hERG current change (%, negative = inhibition) at 10uM” value is recorded as 20.6%.
In the case of `CCC1(C(=O)O)NC(c2cc(OC)ccc2O)C2C(=O)N(Cc3ccccc3)C(=O)C21` (stereo not shown) it was 7.42%; in that of `COc1ccc(CC(=O)N2CCOCC2)cc1`, 16.9%; in that of `CCc1ccccc1N(C(=O)CCC(=O)Nc1cc(C)on1)C(C(=O)NC1CCCC1)c1ccco1` (stereo not shown), -0.891%.
In the case of `COc1cc(SC)ccc1C(=O)NNC(=O)c1cc(C)oc1C` it was 8.47%; in that of `CCOCC(=O)Nc1ncc(S(=O)(=O)c2ccc([N+](=O)[O-])cc2)s1`, -40.5%.
In the case of `COc1ccc(C(=O)CC2SC(N)=NC2=O)cc1` (stereo not shown) it was 18.9%; in that of `Cc1ccc(OCCN2CCN(C(=O)CCC(=O)Nc3nnc(CC(C)C)s3)CC2)cc1`, -43.5%; in that of `O=C1NC(=O)N(c2cccc(F)c2)C(=O)/C1=C/c1ccc(N2CCOCC2)cc1`, 9.9%.
On to `CCN1C(=O)c2cccc3c(N)ccc1c23`, for which the “hERG current change (%, negative = inhibition) at 10uM” value is on record as -8.39%.
Regarding `CCC(C)(C)n1nnnc1C(c1cccs1)N1CCc2ccccc21` (stereo not shown), the “hERG current change (%, negative = inhibition) at 10uM” value is listed as -5.76%.
In the case of `CC(C)C1Oc2cc3oc(=O)ccc3cc2C1=O` (stereo not shown) it was -20.4%; in that of `CC(C)(C)n1ncc2c(=O)n(CC(=O)N3CCCCCC3)cnc21`, 6.45%; in that of `Cc1ccnc(NC(=O)CNC(=O)c2ccccc2)c1`, -6.48%.
In the case of `COc1ccc(C(=O)NCc2ncccc2C)cc1OC1CCN(C(C)=O)CC1` it was 9.32%.
As to `COc1ccc(OC)c2[nH]c(=O)c(CCNC(=O)c3cccs3)cc12`, the “hERG current change (%, negative = inhibition) at 10uM” value is given as -14.8%.
In the case of `CCOc1ccc(C(=O)OC2CCN(C)CC2)cc1.Cl`, the “hERG current change (%, negative = inhibition) at 10uM” value is -21.6%.
In the case of `Cn1c(=O)cc(OCCCC(=O)Nc2cccnc2)c2ccccc21` it was 0.169%; in that of `O=C(NCc1ccccc1)c1cc2nc(C3CC3)cc(C(F)(F)F)n2n1`, -23.1%; in that of `COCC(=O)NCCNc1nc2ccc(C)cc2cc1C`, -24.9%.
`CC(C)C(NS(=O)(=O)c1cccc2nsnc12)C(=O)Nc1nc2ccc(Cl)cc2s1` (stereo not shown): the “hERG current change (%, negative = inhibition) at 10uM” value turned out to be 15.4%.
In the case of `C=CCNC(=S)N/N=C(\C)c1cccc(NC(C)=O)c1` it was -0.426%; in that of `COc1ccc(CCCNC(=O)C2CCC(=O)N(CC3CCCCC3)C2)cc1` (stereo not shown), -16.6%; in that of `Cc1cc(=O)n2nc(N3CCCC(C(=O)NCCc4ccccc4)C3)sc2n1` (stereo not shown), -13.3%.
In the case of `O=C(NC(=S)Nc1nc(-c2cccc([N+](=O)[O-])c2)cs1)c1cc(Cl)ccc1Cl` it was 16.7%.
In the case of `COc1ccc(NC(=S)N2CCC(N(C)CC3CCCO3)CC2)cc1Cl` (stereo not shown) it was -35.5%.
Take `Cc1c(N2C(=O)c3ccc(Br)cc3C2=O)c(=O)n(-c2ccccc2)n1C`: the “hERG current change (%, negative = inhibition) at 10uM” value was found to be 3.45%.
In the case of `O=C(N/N=C/c1cccc(O)c1)c1cc2c(ccc3ccccc32)o1` it was 9.87%.
In the case of `CC(C)CN1C(=S)SC(C)(C)C1n1oc(=O)n(-c2ccccc2)c1=O` (stereo not shown) it was 15.1%; in that of `Cc1nn(-c2ccccc2)c(C)c1/C=N\N1CCN(c2ccc(Cl)cc2)CC1`, 2.97%.
In the case of `CCN(CC)C(=O)c1[nH]cnc1C(=O)NCC(=O)OCc1ccccc1` it was -0.416%; in that of `COc1ccc(CCNC(=O)CCc2ccsc2)cc1OC`, 11.7%.
Regarding `CCCCn1c(SCC(=O)c2ccc(OC)cc2OC)nc2cc(S(N)(=O)=O)ccc21`, the “hERG current change (%, negative = inhibition) at 10uM” value is listed as -4.4%.
For the compound `COc1cc2c(cc1OC)CN(Cc1ccccc1)CC2`, the “hERG current change (%, negative = inhibition) at 10uM” value came out at 16.5%.
On to `COC(=O)c1cc(NCc2ccc3c(c2)OCO3)ccc1N1CCOCC1`, for which the “hERG current change (%, negative = inhibition) at 10uM” value is reported as -23.8%.
In the case of `CC(C)c1nnc(NC(=O)CC23CC4CC(CC(C4)C2)C3)s1` it was 4.22%; in that of `CC(C)OC(=O)C(NC(=O)c1ccccc1)=C1CCCCC1`, 18.6%.
In the case of `N#Cc1ccc(N2CCNCC2)c(F)c1` it was -69%.
In the case of `CCn1c(CSc2nc3ccccc3s2)nc2ccccc21` it was -18.7%; in that of `CCc1nc(NCCN2CCOCC2)c(C#N)c2c1CCCC2`, -37.2%.
Consider `O=C1Nc2ccc(C(F)(F)F)cc2N2CCCC12` (stereo not shown), for which the “hERG current change (%, negative = inhibition) at 10uM” value was -1.52%.
In the case of `COc1ccccc1C(=O)N1CCN(C(=O)c2oc3ccc(C)cc3c2C)CC1` it was -31.1%.
In the case of `Cc1nc2sc(C(=O)OCC(=O)N3c4ccccc4CC3C)c(C)c2c(=O)[nH]1` (stereo not shown) it was 5.27%.
For `N#C/C(=C\c1c(N2CCCCCC2)nc2ccccn2c1=O)C(=O)NCc1ccco1`, the “hERG current change (%, negative = inhibition) at 10uM” value is listed as -46.8%.
On to `CCC(c1nnc(SCC(=O)Nc2ccc(C(N)=O)cc2)n1Cc1ccccc1)N(C)C` (stereo not shown), for which the “hERG current change (%, negative = inhibition) at 10uM” value turned out to be 8.45%.

These data come from publication PMC4336329 (PLoS ONE, 2015).
